Source: patent US8691761B2, “Somatostatin receptor 2 antagonists” (priority 2006, dated 2014)
Where “and” joins values, the source holds several entries; their conditions need not be identical. Identical values can stand only once. Like-named read-outs stand apart in the source and are kept apart here. For some assays here: Part of at least one peptide drawing is inferred or uncertain, most often the ends. For some assays here: For at least one compound, name, drawing or mass did not settle the structure. Some of these results come from one statement about several compounds together. Bridge positions count the residues as written; N and C are the ends. Square brackets hold non-standard residues; d marks the D form. Peptide text beside a SMILES is read from it. * marks the point of attachment. ξ: configuration not given here. DOTA = O=C(O)CN1CCN(CC(=O)O)CCN(CC(=O)*)CCN(CC(=O)O)CC1; Phe(4-NO2) = N[C@@H](Cc1ccc([N+](=O)[O-])cc1)C(=O)O; dPhe(4-NHCONH2) = NC(=O)Nc1ccc(C[C@@H](N)C(=O)O)cc1; Phe(4-Cl) = N[C@@H](Cc1ccc(Cl)cc1)C(=O)O; ξDihydroorotoyl = O=C1CC(C(=O)*)NC(=O)N1; 2Nal = N[C@@H](Cc1ccc2ccccc2c1)C(=O)O; ξPhe(4-NH2) = Nc1ccc(CC(N)C(=O)O)cc1; NMeK = CN[C@@H](CCCCN)C(=O)O

Experiments:
hSSTR2 = target: T1, hSSTR2 (Homo sapiens, UniProt P30874); assay: Receptor autoradiography, displacement of 125I-[Leu8,D-Trp22,Tyr25]-SRIF-28 from membrane pellet sections; assay type: binding
T1 construct: expressed in transfected cells; host or cells: CHO-K1 or CCL39 cells
T1 sequence (P30874 whole entry): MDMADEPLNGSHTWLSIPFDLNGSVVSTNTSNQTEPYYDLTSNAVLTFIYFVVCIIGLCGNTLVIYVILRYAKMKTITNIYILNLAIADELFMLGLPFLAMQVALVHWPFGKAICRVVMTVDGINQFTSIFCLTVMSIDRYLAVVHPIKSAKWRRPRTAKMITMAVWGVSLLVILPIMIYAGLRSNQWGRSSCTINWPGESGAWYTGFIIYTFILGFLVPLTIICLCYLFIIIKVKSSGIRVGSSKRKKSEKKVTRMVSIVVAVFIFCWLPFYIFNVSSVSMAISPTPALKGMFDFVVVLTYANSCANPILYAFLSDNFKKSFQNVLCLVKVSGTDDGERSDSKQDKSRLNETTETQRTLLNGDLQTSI
Protocol: (§1) Generally, recombinant cells expressing the receptor are washed and homogenized to prepare a crude protein homogenate in a suitable buffer. In a typical assay, an amount of protein from the cell homogenate is placed into a small volume of an appropriate assay buffer at an appropriate pH. Candidate substances, such as potential SRIF agonists and antagonists, are added to the admixture in convenient concentrations, and the interaction between the candidate substance and the receptor polypeptide is monitored.
(§2) In vitro Bioassay: The effects of the various somatostatin analogs were tested in vitro for their ability to bind to isolated cloned receptors expressed on CHO-K1 cells and CCL39 cells. The molecular cloning of the genes encoding multiple somatostatin receptor subtypes permitted the individual expression of these receptors in mammalian cells and the characterization of their respective pharmacological profiles.
(§3) CHO-K1 cells were grown in Ham's F-12 medium, and CCL39 cells were grown in Dulbecco's modified Eagle's medium/Ham's F-12(1:1) mix, supplemented with 10% fetal bovine serum, 100 U/ml penicillin and 100 μg/ml streptomycin, in humidified air containing 5% CO2 at 37° C. Cells were washed twice with and scraped into ice-cold 0.05 M Tris-HCl (pH 7.4), collected by centrifugation, and homogenized using a rotor/stator/system in the same buffer. After centrifugation at 120 g for 5 min at 4° C., the supernatant was collected and centrifuged again at 48,000 g for 30 min at 4° C. The resulting pellet was resuspended in ice-cold Tris buffer, transferred into a microfuge tube, and centrifuged at 20,000 g for 15 min at 4° C. After withdrawal of the supernatant, the membrane pellet was stored at −80° C.
(§4) Receptor autoradiography was performed on 20 μm thick cryostat sections of the membrane pellets, mounted on microscope slides, and then stored at −20° C. […] Increasing concentrations of the unlabeled peptide were used ranging from 0.1-1000 nM. […] IC50 values were calculated after quantification of the data using a computer-assisted image processing system as known in this art.
(§5) The numbers in parentheses indicate the number of times the particular binding test was carried out.
(§6) Receptor autoradiography. Cell membrane pellets were prepared as previously described, and stored at −80° C. Receptor autoradiography was performed on 20-μm thick cryostat (Microm HM 500, Walldorf, Germany) sections of the membrane pellets, mounted on microscope slides, and then stored at −20° C. […] After a brief dip in distilled water to remove excess salts, the sections were dried quickly and exposed for 1 week to Kodak BioMax MR film. IC50 values were calculated after quantification of the data using a computer-assisted image processing system as described previously. […] (Reubi, J. C. “In vitro identification of vasoactive intestinal peptide receptors in human tumors: Implications for tumor imaging.” J. Nucl. Med. 1995, 36, 1846-1853).
(§7) To investigate their ssts binding properties, the peptides were tested for their ability to bind to cryostat sections from membrane pellets of cells expressing the five human ssts (Table 3).

hSSTR1 = target: T2, hSSTR1 (Homo sapiens, UniProt P30872); assay: as above; assay type: binding
T2 construct: expressed in transfected cells; host or cells: CHO-K1 or CCL39 cells
T2 sequence (P30872 whole entry): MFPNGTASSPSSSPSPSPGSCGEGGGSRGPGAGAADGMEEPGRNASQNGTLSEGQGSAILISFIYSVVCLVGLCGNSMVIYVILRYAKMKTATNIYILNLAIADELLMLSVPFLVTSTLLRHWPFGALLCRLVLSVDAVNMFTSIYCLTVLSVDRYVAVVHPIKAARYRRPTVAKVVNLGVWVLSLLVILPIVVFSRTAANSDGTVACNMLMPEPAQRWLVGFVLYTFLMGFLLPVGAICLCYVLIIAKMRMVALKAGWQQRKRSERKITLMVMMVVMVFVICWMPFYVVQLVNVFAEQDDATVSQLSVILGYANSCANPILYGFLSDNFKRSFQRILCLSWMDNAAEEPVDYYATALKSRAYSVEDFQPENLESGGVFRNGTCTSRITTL
Protocol: as §1, §2, §3, §4, §5, §6, §7

hSSTR4 = target: T3, hSSTR4 (Homo sapiens, UniProt P31391); assay: as above; assay type: binding
T3 construct: expressed in transfected cells; host or cells: CHO-K1 or CCL39 cells
T3 sequence (P31391 whole entry): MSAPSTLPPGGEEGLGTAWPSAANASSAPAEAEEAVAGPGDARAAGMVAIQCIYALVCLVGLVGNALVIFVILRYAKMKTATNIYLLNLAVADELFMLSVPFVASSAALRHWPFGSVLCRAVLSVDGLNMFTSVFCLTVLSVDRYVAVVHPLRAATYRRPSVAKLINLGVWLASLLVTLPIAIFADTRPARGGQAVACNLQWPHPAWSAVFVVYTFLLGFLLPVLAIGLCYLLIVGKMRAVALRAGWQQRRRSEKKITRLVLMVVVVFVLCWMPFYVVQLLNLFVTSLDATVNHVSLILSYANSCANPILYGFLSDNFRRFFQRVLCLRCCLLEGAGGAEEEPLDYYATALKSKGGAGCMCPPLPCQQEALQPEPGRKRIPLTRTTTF
Protocol: as §1, §2, §3, §4, §5, §6, §7

hSSTR5 = target: T4, hSSTR5 (Homo sapiens, UniProt P35346); assay: as above; assay type: binding
T4 construct: expressed in transfected cells; host or cells: CHO-K1 or CCL39 cells
T4 sequence (P35346 whole entry): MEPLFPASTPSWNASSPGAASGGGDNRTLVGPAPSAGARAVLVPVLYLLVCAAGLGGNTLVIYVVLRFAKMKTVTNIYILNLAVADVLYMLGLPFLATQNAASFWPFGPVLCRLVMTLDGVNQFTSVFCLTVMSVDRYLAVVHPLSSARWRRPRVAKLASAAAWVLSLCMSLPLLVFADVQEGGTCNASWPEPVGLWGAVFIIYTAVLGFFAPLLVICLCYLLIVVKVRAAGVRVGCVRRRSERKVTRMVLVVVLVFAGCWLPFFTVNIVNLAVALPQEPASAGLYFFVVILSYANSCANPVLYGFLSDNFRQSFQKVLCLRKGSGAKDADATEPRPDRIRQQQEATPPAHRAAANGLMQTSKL
Protocol: as §1, §2, §3, §4, §5, §6, §7

hSSTR3 = target: T5, hSSTR3 (Homo sapiens, UniProt P32745); assay: as above; assay type: binding
T5 construct: expressed in transfected cells; host or cells: CHO-K1 or CCL39 cells
T5 sequence (P32745 whole entry): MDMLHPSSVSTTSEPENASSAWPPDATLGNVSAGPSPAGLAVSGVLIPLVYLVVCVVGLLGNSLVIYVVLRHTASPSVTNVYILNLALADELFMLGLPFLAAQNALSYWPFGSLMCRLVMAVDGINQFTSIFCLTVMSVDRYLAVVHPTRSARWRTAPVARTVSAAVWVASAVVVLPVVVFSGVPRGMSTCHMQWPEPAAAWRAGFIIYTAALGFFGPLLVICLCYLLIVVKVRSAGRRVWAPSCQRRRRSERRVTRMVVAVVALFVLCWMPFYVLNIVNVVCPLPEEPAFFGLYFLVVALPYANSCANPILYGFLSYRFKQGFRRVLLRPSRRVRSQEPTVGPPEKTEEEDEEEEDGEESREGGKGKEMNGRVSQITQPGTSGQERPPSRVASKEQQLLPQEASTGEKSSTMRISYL
Protocol: as §1, §2, §3, §4, §5, §6, §7

HEK-sst2 tumors = assay: In vivo biodistribution of radiolabeled peptides in nude mice bearing HEK-sst2 tumors; conditions: 1000- or 2000-fold excess of unlabelled compound
sst5 = sst5 (Homo sapiens, UniProt P35346); conditions: read-out: Ki at sst5 in Hocart et al. assay; cited from earlier work
Chain of sst5 (P35346 whole entry, species assumed): as the sequence (P35346 whole entry) above

sst3 = sst3 (Homo sapiens, UniProt P32745); conditions: read-out: Ki at sst3 in Hocart et al. assay; cited from earlier work
Chain of sst3 (P32745 whole entry, species assumed): as the sequence (P32745 whole entry) above

[1] = Table 3, mean ± SEM when N ≧ 3, read-out: sst2 binding affinity (IC50)
[2] = Table 1, inhibition of radioligand binding to cloned human receptor, read-out: IC50 hSSTR1
[3] = Table 3, mean ± SEM when N ≧ 3, read-out: sst1 binding affinity (IC50)
[4] = Table 1, inhibition of radioligand binding to cloned human receptor, read-out: IC50 hSSTR4
[5] = Table 3, mean ± SEM when N ≧ 3, read-out: sst4 binding affinity (IC50)
[6] = Table 3, mean ± SEM when N ≧ 3, read-out: sst5 binding affinity (IC50)
[7] = Table 3, mean ± SEM when N ≧ 3, read-out: sst3 binding affinity (IC50)

With `C[C@@H](O)[C@@H]1NC(=O)[C@H](CCCCN)NC(=O)[C@@H](Cc2ccc(NC(N)=O)cc2)NC(=O)C(Cc2ccc(NC(=O)C3CC(=O)NC(=O)N3)cc2)NC(=O)[C@H](NC(=O)[C@H](Cc2ccc(Cl)cc2)NC(=O)CN2CCN(CC(=O)O)CCN(CC(=O)O)CCN(CC(=O)O)CC2)CSSC[C@@H](C(=O)N[C@@H](Cc2ccc3ccccc3c2)C(N)=O)NC1=O` (stereo partly drawn) [Peptide No. 30, DOTA-Cpa-c[DCys-Aph(Hor)-DAph(Cbm)-Lys-Thr-Cys]-2Nal-NH2] ({DOTA}-[Phe(4-Cl)][dC][ξPhe(4-NH2)](ξDihydroorotoyl)[dPhe(4-NHCONH2)]KTC[2Nal]-NH2; disulfide 2-7) the IC50 (hSSTR2; [1]) was 1.7 ± 0.2 nM, the IC50 (hSSTR1; [2]) was greater than 1000 nM and the IC50 (hSSTR1; [3]) was greater than 1000 nM. The IC50 (hSSTR4; [4]) was greater than 1000 nM and the IC50 (hSSTR4; [5]) was greater than 1000 nM.
Work on `C[C@@H](O)[C@@H]1NC(=O)[C@H](CCCCN)NC(=O)[C@@H](Cc2c[nH]c3ccccc23)NC(=O)[C@H](Cc2ccc(O)c(I)c2)NC(=O)[C@H](NC(=O)[C@H](Cc2ccc([N+](=O)[O-])cc2)NC(=O)CN2CCN(CC(=O)O)CCN(CC(=O)O)CCN(CC(=O)O)CC2)CSSC[C@@H](C(=O)N[C@H](Cc2ccc(O)cc2)C(N)=O)NC1=O` [Peptide No. 32, DOTA-pNO2Phe-c[DCys-ITyr-DTrp-Lys-Thr-Cys]-DTyr-NH2] yielded an IC50 (hSSTR4; [4]) of 493 ± 206 nM and an IC50 (hSSTR4; [5]) of 455 ± 125 nM.
With `C[C@@H](O)[C@@H]1NC(=O)[C@H](CCCCN)NC(=O)[C@@H](Cc2ccc(NC(N)=O)cc2)NC(=O)C(Cc2ccc(NC(=O)C3CC(=O)NC(=O)N3)cc2)NC(=O)[C@H](NC(=O)[C@H](Cc2ccc(Cl)cc2)NC(=O)CN2CCN(CC(=O)O)CCN(CC(=O)O)CCN(CC(=O)O)CC2)CSSC[C@@H](C(N)=O)NC1=O` (stereo partly drawn) [Peptide No. 33, DOTA-Cpa-c[D-Cys-4Aph(Hor)-D-4Aph(Cbm)-Lys-Thr-Cys]-NH2] ({DOTA}-[Phe(4-Cl)][dC][ξPhe(4-NH2)](ξDihydroorotoyl)[dPhe(4-NHCONH2)]KTC-NH2; disulfide 2-7) the IC50 (hSSTR2; Table 1, inhibition of radioligand binding to cloned human receptor, read-out: IC50 hSSTR2) was 230 nM and 219 nM, the IC50 (hSSTR5; Table 1, inhibition of radioligand binding to cloned human receptor, read-out: IC50 hSSTR5) was greater than 1000 nM and the IC50 (hSSTR1; [2]) was greater than 1000 nM. It also gave an IC50 (hSSTR4; [4]) greater than 1000 nM and an IC50 (hSSTR3; Table 1, inhibition of radioligand binding to cloned human receptor, read-out: IC50 hSSTR3) greater than 1000 nM.
In the case of `C[C@@H](O)[C@@H]1NC(=O)[C@H](CCCCN)NC(=O)[C@@H](Cc2ccc(NC(N)=O)cc2)NC(=O)[C@H](Cc2ccc(O)cc2)NC(=O)[C@H](NC(=O)[C@H](Cc2ccc([N+](=O)[O-])cc2)NC(=O)CN2CCN(CC(=O)O)CCN(CC(=O)O)CCN(CC(=O)O)CC2)CSSC[C@@H](C(=O)N[C@@H](Cc2ccc3ccccc3c2)C(N)=O)NC1=O` [^111In-labelled Peptide No. 5, metal not drawn] ({DOTA}-[Phe(4-NO2)][dC]Y[dPhe(4-NHCONH2)]KTC[2Nal]-NH2; disulfide 2-7), the “effect of excess unlabelled compound on binding in vivo” value (HEK-sst2 tumors) is reported as “inhibited binding”.
With `C[C@@H](O)[C@@H]1NC(=O)[C@H](CCCCN)NC(=O)[C@@H](Cc2ccc(NC(N)=O)cc2)NC(=O)[C@H](Cc2ccc(O)cc2)NC(=O)[C@H](NC(=O)[C@H](Cc2ccc(Cl)cc2)NC(=O)CN2CCN(CC(=O)O)CCN(CC(=O)O)CCN(CC(=O)O)CC2)CSSC[C@@H](C(=O)N[C@@H](Cc2ccc3ccccc3c2)C(N)=O)NC1=O` [^111In-labelled Peptide No. 28, metal not drawn] ({DOTA}-[Phe(4-Cl)][dC]Y[dPhe(4-NHCONH2)]KTC[2Nal]-NH2; disulfide 2-7) the “effect of excess unlabelled compound on binding in vivo” value (HEK-sst2 tumors) was “inhibited binding”.
For `C[C@@H](O)[C@@H]1NC(=O)[C@H](CCCCN)N(C)C(=O)[C@@H](Cc2c[nH]c3ccccc23)NC(=O)[C@H](Cc2ccc(O)cc2)NC(=O)[C@H](NC(=O)[C@@H](N)Cc2ccc(Cl)cc2)CSSC[C@@H](C(=O)N[C@@H](Cc2ccc3ccccc3c2)C(N)=O)NC1=O` [compound 8, H2N-Cpa-c[DCys-Tyr-DTrp-NMeLys-Thr-Cys]-2Nal-NH2, reference compound] (H-[Phe(4-Cl)][dC]Y[dW][NMeK]TC[2Nal]-NH2; disulfide 2-7), the Ki (sst5) is listed as 50 to 100 nM and the Ki (sst3) is listed as 50 to 100 nM.
`C[C@@H](O)[C@@H]1NC(=O)[C@H](CCCCN)NC(=O)[C@@H](Cc2c[nH]c3ccccc23)NC(=O)[C@H](Cc2ccc(NC(N)=O)cc2)NC(=O)[C@H](NC(=O)[C@H](Cc2ccc(Cl)cc2)NC(=O)CCOCCOCCOCCNC(=O)CN2CCN(CC(=O)O)CCN(CC(=O)O)CCN(CC(=O)O)CC2)CSSC[C@@H](C(=O)N[C@@H](Cc2ccc3ccccc3c2)C(N)=O)NC1=O` [compound 16, DOTA-Peg-Cpa-c[DCys-Aph(Cbm)-DTrp-Lys-Thr-Cys]-2Nal-NH2] gave an IC50 (hSSTR2; [1]) of 40 ± 1.5 nM, an IC50 (hSSTR5; [6]) of 895 ± 294 nM and an IC50 (hSSTR3; [7]) of 88 ± 13 nM.
With `C[C@@H](O)[C@@H]1NC(=O)[C@H](CCCCN)NC(=O)[C@@H](Cc2c[nH]c3ccccc23)NC(=O)[C@H](Cc2ccc(NC(N)=O)cc2)NC(=O)[C@H](NC(=O)[C@@H](N)Cc2ccc(Cl)cc2)CSSC[C@@H](C(=O)NC(Cc2ccc(NC(=O)C3CC(=O)NC(=O)N3)cc2)C(N)=O)NC1=O` (stereo partly drawn) [compound 19, H2N-Cpa-c[DCys-Aph(Cbm)-DTrp-Lys-Thr-Cys]-Aph(Hor)-NH2] the IC50 (hSSTR1; [3]) was greater than 1000 nM.
Work on `C[C@@H](O)[C@@H]1NC(=O)[C@H](CCCCN)NC(=O)[C@@H](Cc2ccc(NC(N)=O)cc2)NC(=O)C(Cc2ccc(NC(=O)C3CC(=O)NC(=O)N3)cc2)NC(=O)[C@H](NC(=O)[C@@H](N)Cc2ccc(Cl)cc2)CSSC[C@@H](C(=O)N[C@@H](Cc2ccc3ccccc3c2)C(N)=O)NC1=O` (stereo partly drawn) [compound 29, H2N-Cpa-c[DCys-Aph(Hor)-DAph(Cbm)-Lys-Thr-Cys]-2Nal-NH2] (H-[Phe(4-Cl)][dC][ξPhe(4-NH2)](ξDihydroorotoyl)[dPhe(4-NHCONH2)]KTC[2Nal]-NH2; disulfide 2-7) yielded an IC50 (hSSTR5; [6]) greater than 1000 nM, an IC50 (hSSTR4; [5]) greater than 1000 nM and an IC50 (hSSTR3; [7]) of 83 ± 2 nM.
